Source: the supplement of paper PMC12217912
The list shows a part of the results. Sequences were assembled here from the parent chain. Inactive controls read about 0.05.

B1: TEV protease; numbered along this chain (parent)
chain: MGESLFKGPRDYNPISSSICHLTNESDGHTTSLYGIGFGPFIITNKHLFRRNNGTLVVQSLHGVFKVKDTTTLQQHLVDGRDMIIIRMPKDFPPFPQKLKFREPQREERICLVTTNFQTKSMSSMVSDTSCTFPSGDGIFWKHWIQTKDGQCGSPLVSTRDGFIVGIHSASNFTNTNNYFTSVPKNFMELLTNQEAQQWVSGWRLNADSVLWGGHKVFMVKPEEPFQPVKEATQL

Variants of: B1
Assay: raw area under fraction-flipped curve 0-4 h after induction (AUC4h, not background-subtracted), DNA-recorder readout of cleavage of the substrate (dimensionless); higher = more cleavage of the substrate by the protease variant
Details: temperature: 34 °C; time window: 0-4 h after rhamnose induction
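Note: Bxb1 expression induced with 0.2% (w/v) L-rhamnose at OD600 near 0.5, cultures sampled hourly, flipped fraction per protease–substrate barcode pair counted by paired-end Illumina sequencing.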

Variant | area with substrate ENLYFQD | area with substrate ENLYFQH | area with substrate ENLYFQK | area with substrate ENLYFQL | area with substrate ENLYFQM | area with substrate ENLYFQP | area with substrate ENLYFQR | area with substrate ENLYFQS | area with substrate ENLYFQT | area with substrate ENLYFQC | area with substrate ENLYFQV | area with substrate ENLYFQG | area with substrate ENLYFQI | area with substrate ENLYFQN | area with substrate ENLYFQQ | area with substrate ENLYFQW | area with substrate ENLYFQY | area with substrate ENLYFQF | area with substrate ENLYFQE
MGESLFKGPRDYNPISSSICHLTNESDGHTTSLYGIGFGPFIITNKHLFRRNNGTLVVQSLHGVFKVKDTTCLQQHLVDGRDMIIIRMPKDFPPFPQKLKFREPQREERICLVTTNFQTKSMSSMVSDTSCTFPSGDGIFWKHWIQTKDGQCGSPLVSTRDGFIVGIHSASNFTNTNNYFTSVPKNFMELLTNQEAQQWVSGWRLNADSVLWGGHKVFMVKPEEPFQPVKEATQL [T72C] | 0.0958 | 0.076 | 0.0604 | 0.0688 | 0.087 | 0.0509 | 0.0588 | 0.0982 | 0.0694 |  |  |  |  |  |  |  |  |  | 
MGESLFKGPRDYNPISSSICHLTNESDGHTTSLYGIGFGPFIITNKHLFRRNNGTLVVQSLHGVFKVKDTTTLQQHLVDGRDMIIIRMPKDFPPFPQKLKFREPQREERICLVTTNFQTKSMSSMVSDTSCTFPSGDGIFWKHWIQTKDGQCGSPLVSTRDGFIVGIHSASNFTNTNNYFTSVPKNFMELLTNQEAQQWVSGWRLNADSVLWGGHSVFMVKPEEPFQPVKEATQL [K216S] | 0.0702 |  |  | 0.0467 | 0.0711 |  |  | 0.095 |  | 0.0986 | 0.07 |  |  |  |  |  |  |  | 
MGESLFKGPRDYNPISSSICHLTNESDGHTTSLYGIGFGPFIITNKHLFRRNNGTLVVQSLHGVFKVKDTTTLQQHLVDGRDMIIIRMPKDFPPFPQKLKFREPQREERICLVTTNFQTKSMSSMVSDTSCTFPSGDGIFWKHWIQTKDGQCGSPLVSTRDGFIVGIHSASNFTNTNNYFTSVPKNFMELLTNQEAQQWVSGWRLNADSVLWGGHGVFMVKPEEPFQPVKEATQL [K216G] | 0.0534 | 0.056 | 0.0607 | 0.0812 | 0.0686 |  | 0.0548 | 0.0694 | 0.0483 | 0.0683 | 0.0377 | 0.0628 | 0.0549 | 0.0467 | 0.0274 | 0.0543 | 0.0344 |  | 
MGESLFKGPRDYNPISSSICHLTNESDGHTTSLYGIGFGPFIITNKHLFRRNNGTLVVQSLHGVFKVKDTTTLQQHLVDGRDMIIIRMPKDFPPFPQKLKFREPQREERICLVTTNFQTKSMSSMVSDTSCTFPSGDGIFWKHWIQTKDGQCGSPLVSTRDGFIVGIHSASNFTNTNNYFTSVPKNFMELLTNQEAQQWVSGWRLNADSVLWGGHKVFMVKPEYPFQPVKEATQL [E224Y] | 0.0795 | 0.0666 | 0.0659 | 0.0461 |  | 0.0234 |  | 0.0904 | 0.0662 | 0.0972 | 0.054 |  | 0.0374 | 0.069 |  | 0.0601 |  | 0.0904 | 
MGESLFKGPRDYNPISSSICHLTNESDGHTTSLYGIGFGPFIITNKHLFRRNNGTLVVQSLHGVFKVKDTTTLQQHLVDGRDMIIIRMPKDFPPFPQKLKFREPQREERICLVTTNFQTKSMSSMVSDTSCTFPSGDGIFWKHWIQTKDGQCGSPLVSTRDGFIVGIHSASNFTNTNNYFTSVPKNFMELLTNQEAQQWVSGWRLNADSVLWGGHKVFMVKPEHPFQPVKEATQL [E224H] |  |  | 0.0644 | 0.0654 | 0.0904 | 0.0484 | 0.0448 | 0.0974 | 0.0697 | 0.0983 |  | 0.0561 | 0.0552 | 0.0721 | 0.0373 | 0.0679 | 0.0906 |  | 0.0496
MGESLFKGPRDYNPISSSICHLTNESDGHTTSLYGIGFGPFIITNKHLFRRNNGTLVVQSLHGVFKVKDTTTLQQHLVDGRDMIIIRMPKDFPPFPQKLKFREPQREERICLVTTNFQTKSMSSMVSDTSCTFPSGDGIFWKHWIQTKDGQCGSPLVSTRDGFIVGIHSASNFTNTNNYFTSVPKNFMELLTNQEAQQWVSGWRLNADSVLWGGHKVFMVKPEAPFQPVKEATQL [E224A] | 0.0689 | 0.0619 | 0.0649 | 0.0527 | 0.0764 |  | 0.057 | 0.092 | 0.045 | 0.0945 | 0.0604 | 0.0889 | 0.064 | 0.0831 | 0.0643 | 0.0564 | 0.0687 | 0.0626 | 
MGESLFKGPRDYNPISSSICHLTNESDGHTTSLYGIGFGPFIITNKHLFRRNNGTLVVQSLHGVFKVKDTTTLQQHLVDGRDMIIIRMPKDFPPFPQKLKFREPQREERICLVTTNFQTKSMSSMVSDTSCTFPSGDGIFWKHWIQTKDGQCGSPLVSTRDGFIVGIHSASNFTNTNNYFTSVPKNFMELLTNQEAQQWVSGWRLNADSVLWGGHKVFMVKPEEPFQPVKENTQL [A232N] | 0.0929 | 0.105 | 0.0716 | 0.0405 | 0.131 | 0.0495 |  | 0.11 | 0.0469 | 0.107 | 0.0587 |  | 0.0741 | 0.0574 |  | 0.0692 |  |  | 
MGESLFKGPRDYNPISSSICHLTNESDGHTTSLYGIGFGTFIITNKHLFRRNNGTLVVQSLHGVFKVKDTTTLQQHLVDGRDMIIIRMPKDFPPFPQKLKFREPQREERICLVTTNFQTKSMSSMVSDTSCTFPSGDGIFWKHWIQTKDGQCGSPLVSTRDGFIVGIHSASNFTNTNNYFTSVPKNFMELLTNQEAQQWVSGWRLNADSVLWGGHKVFMVKPEEPFQPVKEATQL [P40T] | 0.0815 | 0.0829 | 0.0613 | 0.0534 |  | 0.0622 | 0.0531 | 0.106 | 0.0744 |  |  | 0.119 | 0.0506 | 0.082 |  | 0.0725 | 0.0809 |  | 
MGESLFKPPRDYNPISSSICHLTNESDGHTTSLYGIGFGPFIITNKHLFRRNNGTLVVQSLHGVFKVKDTTTLQQHLVDGRDMIIIRMPKDFPPFPQKLKFREPQREERICLVTTNFQTKSMSSMVSDTSCTFPSGDGIFWKHWIQTKDGQCGSPLVSTRDGFIVGIHSASNFTNTNNYFTSVPKNFMELLTNQEAQQWVSGWRLNADSVLWGGHKVFMVKPEEPFQPVKEATQL [G8P] | 0.0748 | 0.0998 | 0.0844 | 0.0738 |  | 0.0507 | 0.0316 | 0.116 | 0.0477 |  | 0.0794 | 0.103 |  | 0.0781 |  |  | 0.0777 |  | 
